From PubChem BioAssay AID493208 (National Center for Advancing Translational Sciences (NCATS), 2011)
Screen size: about 44,000 compounds; about 340 (0.77%) were called active. Roughly 5% stayed inconclusive and do not appear here. Calls come from the whole dose curve; as a rule, active = well fitted inhibition curve with a large enough effect; inconclusive = small, poorly fitted or top-dose-only effect; inactive = flat fitted curve, though single readings scatter. The list shows a part of the results.

Experiment: Acumen qHTS Assay for Inhibitors of the mTORC1 Signaling Pathway in MEF (Tsc2-/-, p53-/-) Cells: Sytravon;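 note: plate controls were DMSO for no effect and rapamycin for full effect; nearly all actives have a fitted effect of over 50% in size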
Conditions: phospho-rpS6 immunofluorescence/PI, 24 h; series mostly up to 38.3 µM; activity change, negative = inhibition: at the top concentration
Procedure, shortened: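 Compounds act on Tsc2-/-, p53-/- fibroblasts carrying an empty vector for 24 h before fixation and dual staining for phospho-S6 and DNA (propidium iodide). Values are percentages of cells above a rapamycin-defined pS6/PI threshold.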

Activity change, negative = inhibition, inactive:
O=C(Nc1cc(-c2nc3ccccc3s2)ccc1Cl)c1cc2ccccc2o1 1.89%
CN(Cc1ccccc1)C(=O)c1ccc2c(c1)N(Cc1ccccc1F)C(=O)c1ccccc1S2(=O)=O 5.71%
O=S(=O)(Nc1ccccc1C(F)(F)F)c1ccc(N2CCCCS2(=O)=O)cc1 15.7%
CCCOc1cccc(NC(=O)c2c(-c3ccccc3Cl)noc2C)c1 5.3%
CN(C(=O)CSc1nc2ccc(NC(=O)COc3ccc(Cl)cc3)cc2s1)c1ccccc1 -27.2%
Cc1cccc(C)c1NC(=O)Cn1c(=O)n(Cc2ccccc2)c(=O)c2c(C)c(C(=O)N(C)C)sc21 0.177%
COc1ccc(Cl)cc1NS(=O)(=O)c1ccc2[nH]c3c(c2c1)CCCC3 -18.3%
Cc1ccc(-c2nc3sc(CCNS(=O)(=O)c4cc(F)ccc4F)c(C)n3n2)cc1 -3.87%
Cc1ccc(Cl)cc1-n1c(=O)cc(N2CCN(c3ccc(F)cc3)CC2)[nH]c1=O -2.17%
Cc1cc(C)c2oc(C(=O)Nc3ccc(S(=O)(=O)N4CCCCC4)cc3)cc(=O)c2c1 0.0842%
CC(=O)N(Cc1cccnc1)c1nc2c(F)cc(F)cc2s1 1.07%
Cn1c(=O)c2c(-c3ccc(Cl)cc3)n(Cc3ccccc3)cc2n(C)c1=O -2.89%
O=C(O)Cn1nnc(-c2ccc(OCc3cccc(C(F)(F)F)c3)cc2)n1 -3.8%
CCOC(=O)c1cc(S(=O)(=O)Nc2ccc(C)cc2Cl)[nH]n1 -20.9%
COc1cccc(NC(=O)C2CCC(CNS(=O)(=O)c3ccc4c(c3)CC(C)N4C(C)=O)CC2)c1 (stereo unspecified) -10.3%
COc1ccc(CNC(=O)CSc2nc3ccccc3nc2Cc2ccccc2)cc1 -0.0409%
CCOC(=O)c1[nH]c(C)c(CCC(=O)NCc2ccc(N(C)C)cc2)c1C 0%
COc1ccc(Cn2c(CCC(=O)NCc3cccc(Cl)c3)nc3cccnc32)cc1 -6.71%
COc1ccc(S(=O)(=O)NCCc2cc3ccc(C)c(C)c3[nH]c2=O)cc1 -2.5%
COc1cccc(/C=C/c2nc(C#N)c(NCCN(C)C)o2)c1 -4.28%
COC(=O)c1ccc(NC(=O)CCc2c(C)nn(-c3ccc(N4CCCC4)nn3)c2C)cc1 0.0639%
CCOC(=O)c1cnn(-c2ccc(OC)cc2)c1C1CCN(C(=O)OC(C)(C)C)CC1 -4.7%
Cc1cccc(-c2nc(SCc3ccc(Br)cc3)n3[nH]c(=O)cc3n2)c1 -9.14%
COc1ccccc1N1CCN(C(=O)CCc2c(C)nn(-c3ccc(N4CCCC4)nn3)c2C)CC1 0%
Cn1nc(C(=O)Nc2cc(F)ccc2F)c2c1-c1ccccc1SC2 1.73%
CC1CCCCN1c1csc2ccc(F)cc2c1=O (stereo unspecified) -4.38%
CSc1nc2sc3c(c2c(=O)n1-c1ccc(C)c(Cl)c1)CCN(C(C)=O)C3 -2.21%
CCOc1ccc(CCNC(=O)c2ccc3c(c2)c(C)c(C)n3C)cc1 -0.896%
COC(=O)c1ccc(NC(=O)CSc2nc(=O)n(Cc3ccco3)c3c2CCC3)cc1 -8.26%
COc1cc(C(=O)N(Cc2ccc(C(C)C)cc2)C2CCS(=O)(=O)C2)cc(OC)c1OC (stereo unspecified) -0.173%
CCC(=O)N1CCc2cc(Br)cc(S(=O)(=O)NCCc3ccc(OC)c(OC)c3)c21 -3.62%
CC(=O)C1=C(OC(=O)C(C)C)c2ccccc2S(=O)(=O)N1Cc1ccccc1 -8.99%
O=C(NCCCc1nc2ccccc2n1Cc1ccccc1Cl)C1CCCCC1 -10.6%
Cc1[nH]n2c(=O)cc(-c3ccccc3Cl)nc2c1-c1ccccc1 1.61%
CCn1c(SCc2ccccc2)nnc1-c1nonc1NC(C)=O -12.2%
Cc1cc(NC(=O)CN2C(=O)C(C)(C)c3ccccc32)ccc1Br -9.31%
CCN(C(=O)CSc1nc2ccccc2n1CC(=O)Nc1cccc(C#N)c1)c1ccccc1 0%
Cc1ccc(CNC(=O)CC2Oc3ccccc3NC2=O)cc1 (stereo unspecified) 2.49%
CCOC(=O)C1CCCN(C(=O)Cn2ncc3c([nH]c4ccccc43)c2=O)C1 (stereo unspecified) 3.79%
COc1ccc(C(CC(=O)Nc2ccc(F)c(Cl)c2)N2Cc3ccccc3C2=O)cc1OC (stereo unspecified) -8.01%
Cc1ccc(N2CC3=C(C2=O)C(c2ccc(Br)cc2)NC(=O)N3C)cc1 (stereo unspecified) 9.76%
CC(C)c1ccc(NS(=O)(=O)c2ccc3[nH]cc(C(=O)NC4CCCC4)c(=O)c3c2)cc1 1.3%
Cc1ccccc1CNC(=O)c1ccc(NC(=O)c2nsc3ccccc23)cc1 10.1%
O=C(Cn1c(=O)oc2cc(S(=O)(=O)N3CCCCCC3)ccc21)Nc1cccc(C(F)(F)F)c1 -1.11%
O=C1Cc2cc(S(=O)(=O)N3CCN(c4ccccc4)CC3)ccc2N1 -8.08%
Cc1ccc(-c2nc(C(=O)NCc3ccc(Cl)cc3)c3n2CCCCC3)cc1 6.18%
Cc1ccccc1Nc1sc(C(=O)c2ccc3c(c2)OCO3)c(N)c1S(=O)(=O)c1ccccc1 0.382%
CCOc1ccccc1-n1ccnc(NCc2ccc(F)cc2)c1=O 6.83%
Cc1cccc(NC(=O)Nc2nnc(N(C)C3CCCCC3)s2)c1C -0.253%
Cc1nn(CC(=O)NCc2ccco2)c(=O)c2cc3ccccc3n12 -0.815%
O=C(CCC(=O)N1Cc2ccccc2Oc2ncccc21)Nc1ccc(Cl)cc1 1.88%
COc1ccc(-c2nn(CC(=O)NC3CCCC3)c3c2cnc2ccc(F)cc23)cc1 -3.87%
CC1CCN(S(=O)(=O)c2ccc3c(c2)N(CC(=O)NCc2ccccc2)C(=O)CO3)CC1 -2.36%
COC(=O)c1ccc(Cl)cc1NC(=O)N1CC=C(c2c[nH]c3ccccc23)CC1 -8.8%
COc1ccc(N2CCN(C(=O)c3cc4c(-c5ccccc5F)nn(C)c4s3)CC2)cc1 -7.06%
O=C(Cn1ncc2c(=O)oc3ccccc3c21)Nc1cc(F)ccc1F -0.816%
O=C(CSc1nc2nccnc2c(=O)n1CCc1c[nH]c2ccccc12)Nc1ccccc1F -14.8%
Oc1ccccc1Nc1nc(-c2ccccc2)c2cc(Cl)ccc2n1 -7.7%
CCN(CC)c1nc(-c2ccc(C(C)(C)C)cc2)nc2ccccc12 15.3%
Cc1cccc(OCCCC(=O)Nc2sc3c(c2C(N)=O)CCC(C)C3)c1 (stereo unspecified) 11.2%
COc1ccc2c(CNCC(C)c3ccccc3)c(C(=O)O)n(Cc3ccc(F)cc3Cl)c2c1 (stereo unspecified) -4.51%
COc1ccc(/C=C(\C#N)c2nc(-c3cc(Cl)ccc3OC)cs2)cc1 3.73%
O=C1CS(=O)(=O)C2(C(=O)N(Cc3cccc(F)c3)c3ccccc32)N1c1ccccc1 (stereo unspecified) 1.59%
CCOc1ccc(CCNC(=O)CCc2c(C)nc3c(c(C)nn3-c3ccccc3)c2C)cc1OCC 3.38%
COc1cc(OC)c(NC(=O)c2c(C)oc3ncn(C)c(=O)c23)cc1Cl -5.88%
CCOc1ccc(NC(=O)c2ccc(NC(=O)CCS(=O)(=O)c3cccs3)cc2)cc1 -5.2%
Cc1ccc(C2CC(=O)N(Cc3ccccc3F)c3c2c(C)nn3-c2nc(C)cc(C)n2)cc1 (stereo unspecified) -0.573%
CCn1cc(C(=O)N2CCN(c3cccc(Cl)c3)CC2)c(=O)c2cc(S(=O)(=O)N3CCOCC3)ccc21 -0.828%
Cc1ccc(Cc2nc3ccccc3nc2SCC(=O)N2CCc3ccccc32)cc1 12.2%
CN(C)CCNC(=O)C1CCN(c2nc3ccccc3[nH]2)CC1 8.16%
COc1ccc(NC(=O)Nc2nnc(N3CCCCCC3)s2)cc1 0.684%
Cc1c(NC(=O)c2cc([N+](=O)[O-])ccc2N2CCOCC2)cccc1-c1nc2ccccc2o1 0.458%
Cc1ccc(NC(=O)c2nc(S(C)(=O)=O)ncc2N(Cc2ccccc2)Cc2ccco2)c(C)c1 -1.44%
COc1ccc(NC(=O)c2nnn(Cc3ccccc3C)c2N)c(OC)c1 -10.4%
Cc1ccc(C(=O)Nc2c(-c3ccccc3)nc3ccccn23)cc1C 7.93%
Cc1ccc(CNC(=O)Cn2c3ncccc3c(=O)n2-c2ccccc2)cc1 2.27%
CC(C)CN(CCCNC(=O)c1cc(=O)[nH]c2ccc(S(=O)(=O)N3CCCCCC3)cc12)CC(C)C 5.54%
CC(=O)N1c2nc(C(C)C)nn2C2(CCCCC2)[C@@H]2CCCC[C@@H]21 0%
CCOc1ccc2oc(=O)cc(CN3CCN(c4cc(C)ccc4C)CC3)c2c1 1.25%
CC(=O)Nc1cccc(NC(=O)CN2C(=O)CCSc3ccccc32)c1 -0.552%
Cc1nc2nc(NC(=O)c3ccccc3F)[nH]n2c(=O)c1Cl 0.458%
Cc1cccc(N2CCN(C(=O)c3cccn4c(=O)c5cc(Cl)ccc5nc34)CC2C)c1 (stereo unspecified) -12.9%
O=C(CSc1nnc(-c2cccc(Cl)c2)o1)N1CCc2ccccc21 7.63%
COc1cc(OC)c(NC(=O)C2=C(C)C(=O)OC23CCCCCC3)cc1Cl -14.1%
COc1ccc(C2C=C(c3cccc(OC)c3)Nc3c(C(=O)Nc4ccccc4)cnn32)cc1 (stereo unspecified) 9.21%
CCn1c2c(c(=O)n3ncc(C(=O)Nc4cc(Cl)ccc4C)c13)CN(Cc1ccc(OC)cc1)CC2 3.22%
Cc1ccn2c(Nc3ccc(C(C)C)cc3)c(-c3cccs3)nc2c1 1.43%
COc1ccccc1-c1nnc(SCC(=O)Nc2ccccc2F)o1 -2.44%
Cc1ccc(Cl)cc1NC(=O)CCC(=O)N1CC(C)Sc2ccccc21 (stereo unspecified) 0%
CCC1CN(C(=O)N2CCC(C(=O)N3CCN(c4cccc(C)c4C)CC3)CC2)c2ccccc2O1 (stereo unspecified) -15%
O=C(NCCc1ccc(Cl)cc1)C1CCN(c2ncnc3c2nc2n3CCCCC2)CC1 -9.08%
Cc1ccc(-n2c(=O)c3c4c(sc3n(CC(=O)c3ccc(Cl)cc3)c2=O)CCC4)cc1C -1.31%
CC(=O)N1c2ccc(S(=O)(=O)NCC3CCC(C(=O)Nc4ccc(C)cc4)CC3)cc2CC1C (stereo unspecified) -4.36%
CN(Cc1ccco1)C(=O)c1ccc2c(c1)N(Cc1ccccc1F)C(=O)c1ccccc1S2 -9.13%
CCc1ccc(NC(=O)CN2CCCN(Cc3cccc(Cl)c3)S2(=O)=O)cc1 -3%
COC(=O)c1cc2sc(C)cc2n1CC(=O)Nc1ccc(C)c(C)c1 -8.32%
